# Counter-ions that a name gives are not always drawn. Some of the results follow.
# Tested on: Schistosoma mansoni schistosomula
# Experiment: phenotypic hit in primary schistosomula screen (any phenotype vs DMSO control) (binary (1 = hit, 0 = no phenotype)); higher = active (phenotype induced)
# Details: 1 µM; time (d): 7
row,SMILES,phenotypic hit
1,CC(=O)NS(=O)(=O)c1ccc(N)cc1 [sulfacetamide],inactive: 0
2,CC(=O)O[C@H]1C[C@@]2(C)[C@H](c3ccoc3)OC(=O)[C@H]3O[C@]32[C@@]2(C)C1[C@]1(C)C(C[C@H]2OC(C)=O)C(C)(C)[C@H](OC(C)=O)C[C@@H]1OC(C)=O (stereo partly drawn) [11alpha-acetoxykhivorin],inactive: 0
3,O=C(O[C@@H]1Cc2c(O)cc(O)cc2O[C@@H]1c1cc(O)c(=O)c2c(O)c(O)cc([C@H]3Oc4cc(O)cc(O)c4C[C@H]3OC(=O)c3cc(O)c(O)c(O)c3)c2c1)c1cc(O)c(O)c(O)c1 [theaflavin digallate],inactive: 0
4,CS(=O)(=O)OCCCCOS(C)(=O)=O [busulfan],inactive: 0
5,Cc1c(NC(=O)c2cccnc2)c(=O)n(-c2ccccc2)n1C [nifenazone],inactive: 0
6,O=C(/C=C/c1ccc(O)cc1)c1ccc(O)cc1O [isoliquiritigenin],inactive: 0
7,N[C@@H](Cc1c[nH]c2ccccc12)C(=O)O [tryptophan],inactive: 0
8,NS(=O)(=O)c1cc2c(cc1C(F)(F)F)NCNS2(=O)=O [hydroflumethiazide],inactive: 0
9,COc1cc(OC)c2c(c1Cl)O[C@@]1(C(=O)CC(=O)C[C@H]1C)C2=O [griseofulvic acid],inactive: 0
10,CC(=O)N[C@H]1[C@H]([C@H](O)[C@H](O)CO)OC(O)(C(=O)O)C[C@@H]1O (mixture of isomers) [n-acetylneuramic acid],inactive: 0
11,CN1C(=O)CC[C@H]1c1cccnc1 [cotinine],inactive: 0
12,CC[C@@H]1C(=O)OC[C@@H]1Cc1cncn1C [(+)-Pilocarpine hydrochloride],inactive: 0
13,Cc1cc(O)c(C=O)c(O)c1C(=O)O [haematommic acid],inactive: 0
14,C[C@H](CCC(=O)O)[C@H]1CC[C@H]2[C@@H]3[C@@H](O)C[C@@H]4C[C@H](O)CC[C@]4(C)[C@H]3CC[C@]12C [ursodiol],inactive: 0
15,Nc1c2ccccc2nc2ccccc12 [aminacrine],inactive: 0
16,CN1CCC(=C2c3ccccc3Sc3ccccc32)CC1 [pimethixene maleate],inactive: 0
17,COC1=CC(=O)C(C(=O)c2ccccc2)=CC1=O [2-benzoyl-5-methoxybenzoquinone],inactive: 0
18,N[C@@H](Cc1cc(I)c(Oc2ccc(O)c(I)c2)c(I)c1)C(=O)O [liothyronine sodium],inactive: 0
19,"CC(C)[C@@H](C)/C=C/[C@@H](C)[C@H]1CC[C@H]2C3=CCC4CC(=O)CC[C@]4(C)[C@H]3CC[C@]12C (stereo partly drawn) [ergosta-7,22-dien-3-one]",inactive: 0
20,COc1ccc(-c2oc3cc(O[C@@H]4O[C@H](CO)[C@@H](O)[C@H](O)[C@H]4O)c(OC)c(O)c3c(=O)c2OC)cc1O [centaurein],inactive: 0
21,COc1ccc(C(=O)c2ccccc2)c(O)c1O [3-desmethyl-5-deshydroxyscleroin],inactive: 0
22,C(=C\c1ccccc1)/CN1CCN(C(c2ccccc2)c2ccccc2)CC1 [cinnarazine],inactive: 0
23,C[C@@H]1C[C@H]2[C@@H]3CCC4=CC(=O)C=C[C@]4(C)[C@@]3(F)[C@@H](O)C[C@]2(C)[C@@]1(O)C(=O)COP(=O)(O)O [dexamethasone sodium phosphate],inactive: 0

row,SMILES,phenotypic hit
1,C[C@]12CC[C@@H]3c4ccc(OC(=O)c5ccccc5)cc4CC[C@H]3[C@@H]1CC[C@@H]2O [estradiol benzoate],inactive: 0
2,CN1CCN(C(c2ccccc2)c2ccccc2)CC1 [cyclizine],inactive: 0
3,OCCN(CCO)c1nc(N2CCCCC2)c2nc(N(CCO)CCO)nc(N3CCCCC3)c2n1 [Dipyridamole],inactive: 0
4,C[N+](C)(C)CC(=O)O [betaine hydrochloride],inactive: 0
5,Cc1c(C(=O)O)c(O)cc2c1C(=O)c1c(O)c([C@@H]3O[C@H](CO)[C@@H](O)[C@H](O)[C@H]3O)c(O)c(O)c1C2=O [carminic acid],inactive: 0
6,COc1c(-c2ccccc2)oc2c(ccc3occc32)c1=O [karanjin],inactive: 0
7,CC(C)=CCC/C(C)=C/CC/C(C)=C/CO [farnesol],inactive: 0
8,O=C1CN(/N=C/c2ccc([N+](=O)[O-])o2)C(=O)N1 [nitrofurantoin],inactive: 0
9,Cc1ccccc1OCC(O)CO (stereo not drawn) [mephenesin],inactive: 0
10,C[C@H](N)[C@H](O)c1cccc(O)c1 [metaraminol bitartrate],inactive: 0
11,CC1(C)S[C@@H]2[C@H](NC(=O)C(C(=O)O)c3ccccc3)C(=O)N2[C@H]1C(=O)O (stereo partly drawn) [carbenicillin disodium],inactive: 0
12,CCN(CC)CCOC(=O)C(Cc1cccc2ccccc12)CC1CCCO1 (stereo not drawn) [nafronyl oxalate],inactive: 0
13,O=C1CN(/N=C/c2ccc(-c3ccc([N+](=O)[O-])cc3)o2)C(=O)N1 [dantrolene sodium],inactive: 0
14,"C=C[C@@H](C1=CC(=O)C(OC)=C(OC)C1=O)c1ccccc1 [3,4-dimethoxydalbergione]",inactive: 0
15,COc1cc(O)c2c(c1)C(=O)c1cc(C)cc(O)c1C2=O [physcion],inactive: 0
16,Cc1cc(NS(=O)(=O)c2ccc(N)cc2)no1 [sulfamethoxazole],inactive: 0
17,CN[C@@H]1[C@@H](O)[C@@H](O[C@@H]2[C@@H](O)[C@H](O[C@H]3OC(CN)=CC[C@H]3N)[C@@H](N)C[C@H]2N)OC[C@]1(C)O [sisomicin sulfate],active: 1
18,C=C[C@](C)(O)CCC=C(C)C [linalool (+)],inactive: 0
19,NC[C@H]1O[C@H](O[C@H]2[C@H](O)[C@@H](O[C@H]3O[C@H](CO)[C@@H](O)[C@H](N)[C@H]3O)[C@H](N)C[C@@H]2N)[C@H](O)[C@@H](O)[C@@H]1O [kanamycin sulfate],inactive: 0
20,COC(=O)CC1C(C)(C)C(OC(C)=O)[C@@H]2[C@@H](OC(C)=O)[C@]34O[C@@]2(O)[C@]1(C)C3CC[C@]1(C)C4=CC(=O)O[C@H]1c1ccoc1 (stereo partly drawn) [xylocarpus a],inactive: 0
21,O=C(O)Cc1cc(I)c(Oc2cc(I)c(O)c(I)c2)c(I)c1 [tetrac],inactive: 0
22,CCN(CC)CCOc1ccc2c(c1)C(=O)c1cc(OCCN(CC)CC)ccc1-2 [tilorone],inactive: 0
23,C=C[C@@]1(C)CC(=O)[C@]2(O)[C@@]3(C)[C@@H](O)CCC(C)(C)[C@@H]3[C@H](O)[C@H](OC(C)=O)[C@@]2(C)O1 [colforsin],inactive: 0

row,SMILES,phenotypic hit
1,CCN(CC)C(=S)SSC(=S)N(CC)CC [disulfiram],inactive: 0
2,C=C/C(C)=C\CC1C(C)(O)CCC2C(C)(C)CCCC21C (stereo not drawn) [abienol],inactive: 0
3,C/C(=C(\CCOP(=O)(O)O)SC(=O)c1ccccc1)N(C=O)Cc1cnc(C)nc1N [benfotiamine],inactive: 0
4,"Nc1c2c(nc3ccccc13)CCCC2 [9-Amino-1,2,3,4-tetrahydroacridine hydrochloride]",inactive: 0
5,O=c1cc(-c2ccccc2)oc2cc(O)cc(O)c12 [chrysin],inactive: 0
6,C#C[C@]1(O)CC[C@H]2[C@@H]3CCc4cc(O)ccc4[C@H]3CC[C@@]21C [ethinyl estradiol],active: 1
7,Cc1occc(=O)c1O [larixinic acid],inactive: 0
8,CC(C)=CC1C(CO)C1(C)C (stereo not drawn) [chrysanthemyl alcohol],inactive: 0
9,"CC1=CCC2C3(C)C1=CC(=O)OC3CC1C(C)(C)CC(O)C(O)C12C (stereo not drawn) [merogedunin, 3-deoxo-1alpha,3alpha-dihydroxydihydro-]",inactive: 0
10,CC1(C)CC23C(=O)CCC(O)C2(C)CCC13 (stereo not drawn) [3-nor-3-oxopanasinsan-6-ol],inactive: 0
11,COc1cc2c(cc1OC)C1(O)C(=O)c3ccc(O)c(C(=O)O)c3OC1CO2 (stereo not drawn) [12a-hydroxy-9-demethylmunduserone-8-carboxylic acid],inactive: 0
12,CCC(C(N)=O)c1ccccc1 (stereo not drawn) [fenbutyramide],inactive: 0
13,CC1(O)/C=C\C=C(\CO)C2CC(C)(C)C2(O)CC1 (stereo not drawn) [punctaporin b],inactive: 0
14,COc1ccc(C(=O)c2ccccc2)c(O)c1 [oxybenzone],inactive: 0
15,COc1c(N2C[C@@H]3CCCN[C@@H]3C2)c(F)cc2c(=O)c(C(=O)O)cn(C3CC3)c12 [moxifloxacin hydrochloride],inactive: 0
16,CC(=O)OCC(=O)[C@@]1(O)[C@H](C)C[C@H]2[C@@H]3CCC4=CC(=O)C=C[C@]4(C)[C@@]3(F)[C@@H](O)C[C@@]21C [dexamethasone acetate],inactive: 0
17,"CC1(C)C(=O)C=CC2(C)C1C=CC1(C)C2CCC2(C)C(c3ccoc3)OC(=O)C3OC312 (stereo not drawn) [7-desacetoxy-6,7-dehydrogedunin]",inactive: 0
18,COc1ccc(C(=O)CC(=O)c2ccc(C(C)(C)C)cc2)cc1 [avobenzone],inactive: 0
19,Cc1ccc(C(C)C)c(O)c1C(=O)O [orthothymotinic acid],inactive: 0
20,CC1(C)C(=O)[C@H]2C[C@]3(O)C4=CC(=O)O[C@@H](c5ccoc5)[C@@]4(C)CCC3[C@](C)(C2=O)[C@H]1CC(=O)O (stereo partly drawn) [8-hydroxycarapinic acid],inactive: 0
21,Nc1nc2c(ncn2COCCO)c(=O)[nH]1 [Acyclovir],inactive: 0
22,NCCSSCCN [cystamine dihydrochloride],inactive: 0
